The values below come from PubChem BioAssay AID1508624 (National Center for Advancing Translational Sciences (NCATS), 2021).

Hit rate of the full screen: of about 48,000 compounds, about 120 (0.25%) were called active. About 4% were inconclusive and are not listed. The call rests on the fitted dose curve; in most records, active means well fitted activation curve with a large enough effect; inconclusive means small, poorly fitted or top-dose-only effect, or another doubt; inactive means no such curve, though single readings can be large or run the other way. The list shows a part of the results.

This assay in a line: Primary qHTS for Identification of Small Molecule Activators of Huntingtin-Antisense Promoter Activity. Further: nearly all actives have a fitted effect of over 55% in size. To be noted: HEK293 HTT-AS promoter firefly luciferase reporter, 24 h; series mostly up to 57.5 µM; activity change, positive = activation: at the top concentration. In outline:
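Luminescence was read after Dual-Glo reagent and a 10 min room-temperature incubation. Values were normalized to vehicle (0% activity) and zero RLU (-100% activity). Reporter HEK293 cells had been exposed to compounds (up to 57.5 uM final) for 24 h.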
For orientation: Quantitative high-throughput screening tests each substance at several concentrations.
On to `COc1ccc2c(c1)c1c(c(=O)n(Cc3ccccc3)c(=O)n1Cc1ccccc1)n2C`, for which the “activity change, positive = activation” value is inactive: -4.67%. On to `CCOC(=O)c1c(C)oc2nc(C)nc(NCCCN3CCN(c4cc(Cl)ccc4C)CC3)c12`, for which the “activity change, positive = activation” value was inactive: -10.7%. To `O=C(CCCN1CCC(O)(c2cccc(C(F)(F)F)c2)CC1)c1ccc(F)cc1` belongs inactive: -14.4%. To `CCOC(=O)c1cccc(NC(=O)Nc2ccc3c(c2)N(C)C(=O)c2ccccc2S3)c1` belongs inactive: -44.8%; to `Cc1ccc(-c2noc(-c3nnn(CC(=O)Nc4cccc(C(F)(F)F)c4)c3N)n2)cc1`, inactive: 24.2%; to `O=C(O)c1c2c(nc3ccc(S(=O)(=O)N4CCC(C(=O)NCc5ccc(Cl)cc5)CC4)cc13)CCCC2`, inactive: 4.12%.

Take `CCCCCOc1ccc(NC(=O)Cn2c(-c3cncs3)nc3ccccc32)cc1`: the “activity change, positive = activation” value is inactive: -27%. To `COc1cccc(CNC(=O)Cn2c(SCC(=O)Nc3ccc(C)c(C)c3)nc3ccccc32)c1` belongs inactive: 0%; to `COc1ccc(S(=O)(=O)NCC(c2ccco2)N2CCN(c3ccccc3F)CC2)cc1C` (stereo not drawn), inactive: -35.6%; to `COc1cc(/C=C/c2nc3cc(Cl)ccc3c(=O)n2-c2ccc(C)cc2C)cc(OC)c1OC`, inactive: -5.28%. To `CSc1ccc(NC(=O)Cn2nnnc2-c2ccccc2F)cc1` belongs inactive: 2.75%; to `Cc1cc(Nc2cccc(C(F)(F)F)c2)nc2ccc(NC(=O)c3cccnc3)cc12`, inactive: -92.5%; to `CCOC(=O)c1c(C)oc2nc(C)nc(N3CCN(c4cccc(C)c4C)CC3)c12`, inactive: -2.41%. To `Cc1cccc(OCCSc2nc3ccccc3n2CC(=O)N2CCOCC2)c1C` belongs inactive: -29.7%. Consider `CCOc1ccc(S(=O)(=O)Nc2ccc(OC)c(Cl)c2)c2cccnc12`, for which the “activity change, positive = activation” value was inactive: -26.4%. To `Cc1ccc(NC(=O)C2CCCN(S(=O)(=O)c3c(C)nn(C)c3C)C2)c(C)c1` (stereo not drawn) belongs inactive: -21.2%. To `CCOc1ccc(C2C(C(N)=O)=C(C)Nc3nc(-c4cccc(Cl)c4)nn32)cc1OC` (stereo not drawn) belongs inactive: -22.2%. The value for `CC[C@@H]([C@H](C)O)n1ncn(-c2ccc(N3CCN(c4ccc(OCC5CO[C@@](Cn6cncn6)(c6ccc(F)cc6F)C5)cc4)CC3)cc2)c1=O` (stereo partly drawn) was inactive: -21.8%; that for `CCN1C(=O)c2ccccc2S(=O)c2ccc(C(=O)NCc3ccccc3OC)cc21` (stereo not drawn) was inactive: -16.5%. Take `CC1Cn2cc(C(=O)Nc3ccccc3C(F)(F)F)c(=O)c3c(Cl)ccc(c32)O1` (stereo not drawn): the “activity change, positive = activation” value is inactive: -5.73%.

For the compound `CC(C)Oc1ccc(C(=O)Nc2nc3c(s2)CC(C(C)(C)C)CC3)cc1` (stereo not drawn), the “activity change, positive = activation” value was inactive: -25.2%. On to `O=C(NCC(c1ccc2c(c1)OCO2)N1CCN(c2ccccc2)CC1)c1ccccc1` (stereo not drawn), for which the “activity change, positive = activation” value was inactive: -22.2%. To `Cc1oc2ncn(CC(C)C)c(=O)c2c1C(=O)N(Cc1ccccc1)C(C)C` belongs inactive: -7.13%; to `Cc1nc2nc(C(F)(F)F)[nH]n2c(=O)c1Cc1ccccc1`, inactive: 7.07%. On to `CN(C)c1ccccc1CN1CCCN(Cc2ccccc2N(C)C)C1c1ccncc1`, for which the “activity change, positive = activation” value was inactive: -9.35%. The value for `Cc1ccc(Cn2c(C)c3cnn(CC(=O)N4CCN(c5ccc(F)cc5)CC4)c(=O)c3c2C)cc1` was inactive: -85.5%; that for `COc1cc(OC)c(NC(=O)c2cn(C)c(=O)c3cc(OC)c(OC)cc23)cc1Cl` was inactive: -3.91%; that for `O=C(/C=C/c1ccccc1)N1CCN(Cc2cc(=O)n3nc(-c4ccccc4Cl)sc3n2)CC1` was inactive: 16.6%.

As to `c1ccc(CNCCNCc2ccccc2)cc1`, the “activity change, positive = activation” value is inactive: -4.2%.

As for `C#C[C@]1(OC(C)=O)CC[C@H]2[C@@H]3CCC4=C/C(=N/O)CC[C@@H]4[C@H]3CC[C@@]21CC`, the “activity change, positive = activation” value is inactive: -50.8%. On to `O=C(CN1C(=O)C2(SCC(=O)N2c2ccc(Cl)cc2)c2ccccc21)NCCc1ccccc1` (stereo not drawn), for which the “activity change, positive = activation” value is inactive: -14.8%. To `Cc1ccc(O)c(NC(=O)CCSc2nc(-c3ccco3)cc(C(F)(F)F)n2)c1` belongs inactive: -12.8%; to `COc1ccc(Cl)cc1NS(=O)(=O)c1c(C)[nH]c(=O)[nH]c1=O`, inactive: 2.19%; to `CCOc1ccccc1NC(=O)c1c(NC(=O)c2ccncc2)sc2c1CCC(C(C)(C)C)C2` (stereo not drawn), inactive: -0.498%. The value for `CCc1cccc(NC(=O)c2cccc3c2C(=O)N(C2CCCCC2)C3)c1` was inactive: -6.76%; that for `O=C(NCC(c1cccnc1)N1CCc2ccccc21)C(=O)Nc1ccccc1F` (stereo not drawn) was inactive: -9.26%. To `COc1nnc(-c2ccc(N3CCCCC3)c(NC(=O)c3ccccc3)c2)c2ccccc12` belongs inactive: -15.3%; to `CC(NC(=O)c1cc(-c2ccc(Cl)cc2)on1)c1ccccc1` (stereo not drawn), inactive: -16.5%. In the case of `CCOC(=O)c1nnn(CC(=O)NC(=O)Nc2ccc(F)cc2)c1C(=O)OCC`, the “activity change, positive = activation” value is inactive: 6.4%. The value for `COc1ccc(CNC(=O)c2ccc3c(c2)N(Cc2ccccc2)CCS3)cc1` was inactive: -19.4%. The value for `CCN(CC)S(=O)(=O)c1ccc(C(=O)O)cc1` was inactive: -10%.

As for `CCOc1ccccc1N1CC(c2nc3ccccc3n2CCOc2ccccc2OC)CC1=O` (stereo not drawn), the “activity change, positive = activation” value is inactive: -45.1%. Turning to `Cn1nc(-c2ccc(C(=O)Nc3ccc(OC(F)(F)F)cc3)cc2)c2ccccc2c1=O`, the “activity change, positive = activation” value was inactive: -46.7%. With `COc1ccc(-c2nnc(SCC(=O)c3ccc([N+](=O)[O-])cc3)o2)cc1OC`, the “activity change, positive = activation” value is inactive: 6.24%. To `O=C(NCc1ccccc1Cl)C(=O)NCC(c1cccs1)S(=O)(=O)c1ccccc1` (stereo not drawn) belongs inactive: -29.8%; to `Cc1ccc(-n2c(SCc3ccccc3C)nc3[nH]ncc3c2=O)cc1C`, inactive: -30.5%; to `N#C/C(=C\c1ccc(-c2ccc(Cl)c(C(=O)O)c2)o1)c1nc2ccccc2[nH]1`, inactive: 5.06%. With `COc1ccc2c(c1)Cc1sc(NC(=O)c3ccc(Cl)cc3)nc1-2`, the “activity change, positive = activation” value was inactive: -27.4%. To `Cc1cccn2c(=O)c3cc(C(=O)NC(C)c4ccccc4)c(=N)n(CCOCCO)c3nc12` (stereo not drawn) belongs inactive: -5.08%; to `COc1ccc(Cl)cc1NC(=O)c1c(NCc2cccs2)sc2c1CCCC2`, inactive: -12.6%. The value for `Cc1cccc(-n2ncc(C(=O)Nc3ccc4c(c3)OCO4)c2C2CCN(C(=O)OC(C)(C)C)CC2)c1` was inactive: 1.47%.

Regarding `Cc1ccc(S(=O)(=O)Nc2c(C)nc3nc(C)[nH]n3c2=O)c(C)c1`, the “activity change, positive = activation” value is inactive: -16.5%. The value for `CN(C)c1ccc(NC(=O)CSC2=Nc3ccccc3C3=NC(CC(=O)NCc4ccc5c(c4)OCO5)C(=O)N23)cc1` (stereo not drawn) was inactive: -0.735%; that for `Oc1ccc(NCc2ccccc2OCc2ccccc2Cl)cc1` was inactive: -11.1%. For the compound `CC(C)C(=O)c1cc2c(cc1NC(=O)c1ccccc1F)OCCO2`, the “activity change, positive = activation” value was inactive: -15.9%. The value for `Cc1ccc(C(=O)c2oc3ccccc3c2NC(=O)COc2ccc(C(C)(C)C)cc2)cc1` was inactive: 8.37%. The value for `Cc1ccc(NC(=O)Cn2cnc3c(oc4ccccc43)c2=O)cc1` was inactive: 19.3%; that for `COC(=O)c1ccc(NC(=O)CSc2nc3c(c(=O)n(C)c(=O)n3C)n2Cc2ccccc2)cc1` was inactive: 9.15%. To `COc1ccc(C(=O)NCc2nnc(SCC(=O)Nc3ccc(F)cc3)n2-c2ccccc2)cc1` belongs inactive: -3.94%; to `CC(=O)N1CCc2cc(S(=O)(=O)CCC(=O)N3CCN(c4ccccc4F)CC3)ccc21`, inactive: -23.3%; to `Cc1cc(Nc2ccc(Cl)cc2)n2cnnc2n1`, inactive: -4.3%. On to `COc1ccccc1Cc1nc2ccccc2nc1SCC(=O)N1CCCc2ccccc21`, for which the “activity change, positive = activation” value was inactive: -7.93%. Regarding `Cc1cccc(N2CCN(C(=O)CN3C(=O)COc4ccc(S(=O)(=O)N5CCCC5)cc43)CC2)c1C`, the “activity change, positive = activation” value was inactive: -10.4%. The value for `N#C/C(=C\c1c(Oc2ccc(F)cc2)nc2ccccn2c1=O)c1nc2ccccc2s1` was inactive: -8.51% [at 11.5 µM, percent change from vehicle, -100% = no light].

Take `COCC(=O)O[C@]1(CCN(C)CCCc2nc3ccccc3[nH]2)CCc2cc(F)ccc2[C@@H]1C(C)C`: the “activity change, positive = activation” value is inactive: -16.3%. To `CCCOc1ccc(C(=O)Nc2sc3c(c2C(=O)OCC)CCCCC3)cc1` belongs inactive: -5.69%; to `O=C1CC(c2ccc(F)cc2)c2c(n3c(nc4ccccc43)[nH]c2=O)N1` (stereo not drawn), inactive: -13.2%. The value for `O=C(O)CCCCC1CCSS1` (stereo not drawn) was inactive: -3.03%; that for `CCc1ccc(CNC(=O)C2CCN(C(=O)c3ccc(-n4ccc5ccccc54)s3)CC2)cc1` was inactive: -15.3%; that for `Cc1ccccc1CS(=O)(=O)c1ncc(Cl)c(C(=O)Nc2nnc(C(C)C)s2)n1` was inactive: -95.4%. For the compound `Cc1oc(-c2cccc(Br)c2)nc1CSc1nc2ncccc2[nH]1`, the “activity change, positive = activation” value was inactive: -18.9%. To `CC(C)c1ccc(-c2noc(SCC(=O)N(C)c3ccc(F)cc3)n2)cc1` belongs inactive: -56.9%. To `CCOC(=O)c1cc(OC(=O)c2cccc(F)c2)n(-c2ccccc2)n1` belongs inactive: -23.3%; to `CC(=O)N1CCCc2ccc(NC(=O)c3ccc(C(F)(F)F)cc3)cc21`, inactive: -51%; to `Cc1ccccc1-c1noc(-c2ccc(N3CCCC3)c([N+](=O)[O-])c2)n1`, inactive: -76.8%. To `CCOc1ccc(N(C(=O)c2ccc(OC)cc2)S(=O)(=O)c2ccc3c(c2)n(C)c(=O)n3C)cc1` belongs inactive: -11.1%; to `O=C(NCc1cccnc1)C1CCN(Cc2cc3ccccc3n2Cc2ccccc2)CC1`, inactive: -14.8%; to `CCC(=O)OC1=CN(Cc2ccccc2)S(=O)(=O)c2ccccc21`, inactive: -7.49%. For the compound `CC(C)c1ccc(NC(=O)CN2C=NS(=O)(=O)c3ccccc32)cc1`, the “activity change, positive = activation” value is inactive: -0.601%. Turning to `CCC(=O)C1=C(c2ccc(F)cc2)N(C(=O)CC)n2c(nnc2C2CCCCC2)S1`, the “activity change, positive = activation” value was inactive: -7.42%. The value for `Cc1cc(C)cc(NC(=O)CSc2nnc(CNC(=O)c3c(F)cccc3Cl)o2)c1` was inactive: -4.88%. To `CN(C)c1ccc2cc(C(=O)N[C@@H](CCCN=C(N)CCl)C(=O)NCc3ccccc3)ccc2c1` belongs inactive: -9.15%; to `CCN(CC)S(=O)(=O)c1ccc2c(c1)N(CC(=O)Nc1c(C)cc(C)cc1C)C(=O)CS2`, inactive: -13.4%; to `COC(=O)c1cc2oc(C)cc2n1Cc1ccc(C)cc1`, inactive: 24.3%. To `O=C(CCNS(=O)(=O)c1ccc(Br)s1)Nc1ccc(Br)cc1` belongs inactive: -8.89%; to `Cc1ccc(CNCc2ccc3c(c2)n(C)c(=O)n3C)cc1`, inactive: -6.53%. In the case of `c1ccc(Nc2c(-c3ccccc3)nc3ncccn23)cc1`, the “activity change, positive = activation” value is inactive: -21.5%.

Turning to `COc1ccc2c(c1)c(=O)c(S(=O)(=O)c1ccc(F)cc1)cn2CC(=O)Nc1ccc(C)cc1C`, the “activity change, positive = activation” value was inactive: -12.9%. The value for `CCN1C(=O)c2ccccc2Sc2ccc(NC(=O)Cc3ccc(OC)c(OC)c3)cc21` was inactive: -17.2%; that for `COc1ccc(CN(C(=O)Nc2cc(C)ccc2C)C2CCN(C(C)=O)CC2)cc1` was inactive: -18.5%.

For the compound `COc1cc(NS(=O)(=O)c2ccc(NC(=O)COc3ccc(Cl)cc3Cl)cc2)nc(OC)n1`, the “activity change, positive = activation” value is inactive: 0.784%. The value for `CCOc1cccc(CC(=O)NCc2ccc3c(c2)CCN3C(=O)c2cccc(C)c2)c1OCC` was inactive: -51.7%; that for `CCOc1ccccc1N(CC)C(=O)Cn1ncc2c1-c1ccccc1OC2` was inactive: -38%.
